The other results are listed elsewhere or left out. Sequences were assembled here from the parent chain. Values near 0.05 are background.
B1: TEV protease; numbered along this chain (parent)
chain: MGESLFKGPRDYNPISSSICHLTNESDGHTTSLYGIGFGPFIITNKHLFRRNNGTLVVQSLHGVFKVKDTTTLQQHLVDGRDMIIIRMPKDFPPFPQKLKFREPQREERICLVTTNFQTKSMSSMVSDTSCTFPSGDGIFWKHWIQTKDGQCGSPLVSTRDGFIVGIHSASNFTNTNNYFTSVPKNFMELLTNQEAQQWVSGWRLNADSVLWGGHKVFMVKPEEPFQPVKEATQL

Variants of: B1
Assay: raw area under fraction-flipped curve 0-4 h after induction (AUC4h, not background-subtracted), DNA-recorder readout of cleavage of the substrate (dimensionless); higher = more cleavage of the substrate by the protease variant
Details: temperature: 34 °C; time window: 0-4 h after rhamnose induction
Description: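 In vivo DNA recorder in E. coli TOP10(DE3) ΔrhaA at 34 °C. Each TEVp single-site mutant (parent TEVp 0) is paired with a single-site variant of the 7-mer TEVs (canonical ENLYFQ|S). The substrate sits between flexible linkers in a Bxb1-sfGFP-TEVs-SsrA fusion, so cleavage stabilises Bxb1 and speeds flipping of a recombination array, read by NGS. The value is the raw area under the fraction-flipped curve over 0-4 h after rhamnose induction (AUC4h), with ≥20 reads per time point. It is not background-subtracted; inactive controls average about 0.047.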
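Further: Bxb1 expression induced with 0.2% (w/v) L-rhamnose at OD600 near 0.5, cultures sampled hourly, flipped fraction per protease–substrate barcode pair counted by paired-end Illumina sequencing.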

Variant	area with substrate ENAYFQS	area with substrate ENCYFQS	area with substrate ENDYFQS	area with substrate ENEYFQS	area with substrate ENFYFQS	area with substrate ENHYFQS	area with substrate ENKYFQS	area with substrate ENPYFQS	area with substrate ENQYFQS	area with substrate ENRYFQS	area with substrate ENSYFQS	area with substrate ENTYFQS	area with substrate ENWYFQS	area with substrate ENIYFQS	area with substrate ENNYFQS	area with substrate ENVYFQS	area with substrate ENYYFQS	area with substrate ENGYFQS	area with substrate ENMYFQS
MGHSLFKGPRDYNPISSSICHLTNESDGHTTSLYGIGFGPFIITNKHLFRRNNGTLVVQSLHGVFKVKDTTTLQQHLVDGRDMIIIRMPKDFPPFPQKLKFREPQREERICLVTTNFQTKSMSSMVSDTSCTFPSGDGIFWKHWIQTKDGQCGSPLVSTRDGFIVGIHSASNFTNTNNYFTSVPKNFMELLTNQEAQQWVSGWRLNADSVLWGGHKVFMVKPEEPFQPVKEATQL [E3H]	0.0498	0.0687	0.0662	0.053	0.0679	0.0459	0.0357	0.045	0.0546	0.0631	0.0619	0.0639	0.0585						
MGMSLFKGPRDYNPISSSICHLTNESDGHTTSLYGIGFGPFIITNKHLFRRNNGTLVVQSLHGVFKVKDTTTLQQHLVDGRDMIIIRMPKDFPPFPQKLKFREPQREERICLVTTNFQTKSMSSMVSDTSCTFPSGDGIFWKHWIQTKDGQCGSPLVSTRDGFIVGIHSASNFTNTNNYFTSVPKNFMELLTNQEAQQWVSGWRLNADSVLWGGHKVFMVKPEEPFQPVKEATQL [E3M]	0.0277	0.0697	0.0532	0.0604	0.0359	0.0701			0.055	0.0619	0.077	0.0782		0.13	0.0495	0.0808	0.0509		
MGQSLFKGPRDYNPISSSICHLTNESDGHTTSLYGIGFGPFIITNKHLFRRNNGTLVVQSLHGVFKVKDTTTLQQHLVDGRDMIIIRMPKDFPPFPQKLKFREPQREERICLVTTNFQTKSMSSMVSDTSCTFPSGDGIFWKHWIQTKDGQCGSPLVSTRDGFIVGIHSASNFTNTNNYFTSVPKNFMELLTNQEAQQWVSGWRLNADSVLWGGHKVFMVKPEEPFQPVKEATQL [E3Q]	0.0679	0.0673	0.0586	0.0683	0.067		0.0698		0.0667		0.0392	0.0688		0.0796		0.0658		0.0607	
MGECLFKGPRDYNPISSSICHLTNESDGHTTSLYGIGFGPFIITNKHLFRRNNGTLVVQSLHGVFKVKDTTTLQQHLVDGRDMIIIRMPKDFPPFPQKLKFREPQREERICLVTTNFQTKSMSSMVSDTSCTFPSGDGIFWKHWIQTKDGQCGSPLVSTRDGFIVGIHSASNFTNTNNYFTSVPKNFMELLTNQEAQQWVSGWRLNADSVLWGGHKVFMVKPEEPFQPVKEATQL [S4C]	0.059		0.0581	0.0615	0.0674	0.071	0.0397	0.0583	0.0697	0.0718	0.0672		0.0777	0.0936	0.055	0.0636		0.0669	
MGEHLFKGPRDYNPISSSICHLTNESDGHTTSLYGIGFGPFIITNKHLFRRNNGTLVVQSLHGVFKVKDTTTLQQHLVDGRDMIIIRMPKDFPPFPQKLKFREPQREERICLVTTNFQTKSMSSMVSDTSCTFPSGDGIFWKHWIQTKDGQCGSPLVSTRDGFIVGIHSASNFTNTNNYFTSVPKNFMELLTNQEAQQWVSGWRLNADSVLWGGHKVFMVKPEEPFQPVKEATQL [S4H]	0.0632	0.074	0.0681		0.0559				0.0641	0.0625	0.0596	0.0595		0.135	0.072	0.0789	0.0621		0.0945
MGESLFDGPRDYNPISSSICHLTNESDGHTTSLYGIGFGPFIITNKHLFRRNNGTLVVQSLHGVFKVKDTTTLQQHLVDGRDMIIIRMPKDFPPFPQKLKFREPQREERICLVTTNFQTKSMSSMVSDTSCTFPSGDGIFWKHWIQTKDGQCGSPLVSTRDGFIVGIHSASNFTNTNNYFTSVPKNFMELLTNQEAQQWVSGWRLNADSVLWGGHKVFMVKPEEPFQPVKEATQL [K7D]	0.069		0.068	0.0739		0.0546		0.0602	0.0648		0.063	0.0594	0.0655			0.0563			0.0738
MGESLFKGFRDYNPISSSICHLTNESDGHTTSLYGIGFGPFIITNKHLFRRNNGTLVVQSLHGVFKVKDTTTLQQHLVDGRDMIIIRMPKDFPPFPQKLKFREPQREERICLVTTNFQTKSMSSMVSDTSCTFPSGDGIFWKHWIQTKDGQCGSPLVSTRDGFIVGIHSASNFTNTNNYFTSVPKNFMELLTNQEAQQWVSGWRLNADSVLWGGHKVFMVKPEEPFQPVKEATQL [P9F]	0.0716	0.0676		0.0433	0.0416	0.0666	0.0632	0.07	0.0639	0.0642	0.0555	0.0633			0.0583	0.0729	0.0882		0.0542
MGESLFKGLRDYNPISSSICHLTNESDGHTTSLYGIGFGPFIITNKHLFRRNNGTLVVQSLHGVFKVKDTTTLQQHLVDGRDMIIIRMPKDFPPFPQKLKFREPQREERICLVTTNFQTKSMSSMVSDTSCTFPSGDGIFWKHWIQTKDGQCGSPLVSTRDGFIVGIHSASNFTNTNNYFTSVPKNFMELLTNQEAQQWVSGWRLNADSVLWGGHKVFMVKPEEPFQPVKEATQL [P9L]	0.0766			0.0681	0.0464		0.0585	0.0669	0.0525	0.0848	0.0599			0.134	0.059	0.0887		0.0502	0.0792
MGESLFKGPRVYNPISSSICHLTNESDGHTTSLYGIGFGPFIITNKHLFRRNNGTLVVQSLHGVFKVKDTTTLQQHLVDGRDMIIIRMPKDFPPFPQKLKFREPQREERICLVTTNFQTKSMSSMVSDTSCTFPSGDGIFWKHWIQTKDGQCGSPLVSTRDGFIVGIHSASNFTNTNNYFTSVPKNFMELLTNQEAQQWVSGWRLNADSVLWGGHKVFMVKPEEPFQPVKEATQL [D11V]	0.0676	0.062	0.0528	0.0669	0.0673	0.0579	0.0441	0.0722	0.0652	0.0692	0.063	0.0663	0.0444	0.0811		0.0754	0.0531	0.065	0.074
MGESLFKGPRDLNPISSSICHLTNESDGHTTSLYGIGFGPFIITNKHLFRRNNGTLVVQSLHGVFKVKDTTTLQQHLVDGRDMIIIRMPKDFPPFPQKLKFREPQREERICLVTTNFQTKSMSSMVSDTSCTFPSGDGIFWKHWIQTKDGQCGSPLVSTRDGFIVGIHSASNFTNTNNYFTSVPKNFMELLTNQEAQQWVSGWRLNADSVLWGGHKVFMVKPEEPFQPVKEATQL [Y12L]	0.0615	0.0682	0.0553	0.0742					0.0666		0.0531	0.0792	0.0682	0.0896	0.0637	0.0818	0.0539	0.0636	0.0883
